Laboratory results reported in the antibiotic and cytotoxicity screens of Wong et al. (2023).
The list shows a part of the results.

Key:
HSkMC = human skeletal muscle cells; assay: cytotoxicity call (relative viability < 0.9); conditions: 10 µM
HepG2 = assay: cytotoxicity call (relative viability < 0.9); conditions: 10 µM
S. aureus RN4220 = assay: growth inhibition call (relative growth <= 0.2); conditions: 50 µM

| SMILES | cytotoxicity call (HSkMC) | cytotoxicity call (HepG2) | growth inhibition call (S. aureus RN4220) |
| --- | --- | --- | --- |
| CCCOc1ccc(C(=O)OCCN(CC)CC)cc1N.Cl | inactive | inactive | inactive |
| C[C@@H]1CCCCO[C@@H](CN(C)Cc2ccncc2)[C@H](C)CN([C@H](C)CO)C(=O)c2cc(NC(=O)Nc3ccc(C(F)(F)F)cc3)ccc2O1 | inactive | active | inactive |
| CCOC(=O)CNC(=O)c1cc(C)on1 | inactive | inactive | inactive |
| C[C@@H]1CN([C@H](C)CO)C(=O)c2cc(NS(C)(=O)=O)ccc2O[C@H]1CN(C)C(=O)Nc1ccccc1 | inactive | inactive | inactive |
| C[C@@H]1CN([C@H](C)CO)C(=O)c2cc(-c3ccc(C(=O)N(C)C)cc3)cnc2O[C@@H]1CN(C)C(=O)C1CC1 | inactive | inactive | inactive |
| COc1ccc(CN(C)C[C@H]2Oc3c(NS(=O)(=O)c4cn(C)cn4)cccc3C(=O)N([C@@H](C)CO)C[C@H]2C)cc1 | inactive | inactive | inactive |
| C[C@@H]1CN([C@H](C)CO)C(=O)c2c(c3ccccc3n2C)-c2ccccc2CO[C@H]1CN(C)Cc1ccc(C(=O)O)cc1 | inactive | inactive | inactive |
| CC(C)NC(=O)N(C)C[C@H]1Oc2ccc(NC(=O)NC3CCCCC3)cc2CC(=O)N([C@@H](C)CO)C[C@H]1C | inactive | inactive | inactive |
| O=C1CCCN1C1CCNCC1 | inactive | inactive | inactive |
| COc1ccc(S(=O)(=O)Nc2cccc3c2O[C@H](CN(C)S(=O)(=O)c2ccccc2)[C@@H](C)CN([C@H](C)CO)C3=O)cc1 | inactive | inactive | inactive |
| O=C(C[C@H]1C=C[C@@H](NC(=O)C2CCC2)[C@H](CO)O1)NCCCN1CCOCC1 | inactive | inactive | inactive |
| CC(=O)N1CCO[C@H]2CN(S(=O)(=O)c3cccnc3)C[C@@H]2C1 | inactive | inactive | inactive |
| Cc1ccc(S(=O)(=O)N(C)C[C@@H]2OCCCC[C@H](C)Oc3ccc(NC(=O)Nc4ccc(C(F)(F)F)cc4)cc3C(=O)N([C@H](C)CO)C[C@H]2C)cc1 | inactive | inactive | inactive |
| COc1ccccc1CNC(=O)C[C@@H]1C[C@@H]2c3cc(NS(=O)(=O)c4ccc(F)cc4)ccc3O[C@@H]2[C@H](CO)O1 | inactive | inactive | inactive |
| C[C@@H]1CN([C@H](C)CO)C(=O)c2cccc(NC(=O)c3ccncc3)c2O[C@H]1CN(C)C(=O)Nc1ccc2c(c1)OCO2 | inactive | inactive | inactive |
| C[C@H]1CN([C@@H](C)CO)C(=O)Cc2cc(NC(=O)Nc3ccc(C(F)(F)F)cc3)ccc2O[C@H]1CN(C)Cc1ccc(Cl)c(Cl)c1 | active | active | inactive |
| C[C@H]1CN([C@@H](C)CO)C(=O)c2cc(Br)cnc2O[C@H]1CN(C)C(=O)Nc1ccc(F)cc1 | inactive | inactive | inactive |
| COc1ccc(S(=O)(=O)Nc2ccc3c(c2)C(=O)N([C@H](C)CO)C[C@H](C)[C@H](CN(C)S(=O)(=O)c2c(C)noc2C)O3)cc1 | inactive | inactive | inactive |
| C=CCOC(=O)[C@@H]1[C@H]2C(=O)O[C@H](c3ccccc3)[C@H](c3ccccc3)N2[C@H](c2ccc(OCCOC(=O)NCCCCCC(=O)NO)cc2)[C@]12C(=O)Nc1ccccc12 | inactive | inactive | inactive |
| CNC[C@H]1OCCCC[C@@H](C)Oc2ccc(NC(=O)c3ccncc3)cc2C(=O)N([C@@H](C)CO)C[C@H]1C | inactive | inactive | inactive |
| CCNC(=O)C[C@@H]1CC[C@@H]2[C@@H](COc3ccc(NS(=O)(=O)c4ccccc4C)cc3C(=O)N2C)O1 | inactive | inactive | inactive |
| C[C@H]1CN([C@@H](C)CO)C(=O)Cc2cc(NC(=O)Nc3cccc4ccccc34)ccc2O[C@H]1CN(C)CC1CCCCC1 | active | active | inactive |
| Cl.Nc1ncnc(Nc2ccc(Cl)cc2)n1 | inactive | inactive | inactive |
| C[C@H]1CCCCO[C@@H](CN(C)C(=O)Nc2ccccc2)[C@@H](C)CN([C@@H](C)CO)C(=O)c2cc(NC(=O)Cc3ccccc3)ccc2O1 | inactive | inactive | inactive |
| CC(C)[C@@H](CO)N1C(=O)[C@@H]2[C@H]3C(=O)OCCC/C=C\[C@H]3O[C@]23C=CCN(Cn2nnc4ccccc42)C(=O)[C@@H]13 | inactive | inactive | inactive |
| COc1cccc(-c2ccc3c(c2)O[C@H](CN(C)C(=O)C2CC2)[C@@H](C)CN([C@@H](C)CO)S3(=O)=O)c1 | inactive | inactive | inactive |
| COc1ccc(NC(=O)N(C)C[C@H]2Oc3ncc(C#C[C@@H](C)O)cc3C(=O)N([C@@H](C)CO)C[C@H]2C)cc1 | inactive | inactive | inactive |
| C[C@H](CO)N1C[C@H](C)[C@@H](CN(C)Cc2ccc(Cl)c(Cl)c2)OCCCC[C@H](C)Oc2ccc(NC(=O)CCC(F)(F)F)cc2C1=O | inactive | inactive | inactive |

| SMILES | cytotoxicity call (HSkMC) | cytotoxicity call (HepG2) | growth inhibition call (S. aureus RN4220) |
| --- | --- | --- | --- |
| O=C(O)c1ccccc1 | inactive | inactive | inactive |
| COC(=O)c1c(CC[C@@H](CO)NC(=O)NCCn2cc(C3(O)CCCC3)nn2)oc(C(C)=O)c1C(=O)OC | inactive | inactive | inactive |
| C[C@@H]1CN([C@H](C)CO)C(=O)c2cc(NS(=O)(=O)c3ccccc3)ccc2O[C@@H](C)CCCCO[C@@H]1CN(C)Cc1ccccc1 | inactive | inactive | inactive |
| Cc1ccc(S(=O)(=O)Nc2ccc3c(c2)CC(=O)N([C@H](C)CO)C[C@@H](C)[C@@H](CN(C)S(=O)(=O)c2ccccc2)O3)cc1 | inactive | inactive | inactive |
| CCCCCCCCCCCCCCCC(=O)OC[C@H](NC(=O)C(Cl)Cl)[C@H](O)c1ccc([N+](=O)[O-])cc1 | inactive | inactive | inactive |
| C[C@H]1CN([C@@H](C)CO)C(=O)CCCn2cc(nn2)CO[C@@H]1CN(C)S(=O)(=O)c1ccccc1C#N | inactive | inactive | inactive |
| C[C@H]1CN([C@@H](C)CO)C(=O)Cc2cc(NC(=O)Nc3cccc4ccccc34)ccc2O[C@@H]1CN(C)C(=O)Nc1ccc2c(c1)OCO2 | inactive | inactive | inactive |
| C[C@H]1CN([C@@H](C)CO)C(=O)Cc2cc(NS(=O)(=O)c3ccc(F)cc3)ccc2O[C@@H]1CN(C)Cc1ccncc1 | inactive | inactive | inactive |
| COc1ccc(NC(=O)Nc2ccc3c(c2)C(=O)N([C@H](C)CO)C[C@H](C)[C@H](CN(C)C(=O)Cc2ccccc2)OCCCC[C@@H](C)O3)cc1 | inactive | inactive | inactive |
| CC(C)NC(=O)Nc1ccc2c(c1)C(=O)N([C@H](C)CO)C[C@@H](C)[C@@H](CN(C)CC1CCCCC1)OCCCC[C@H](C)O2 | inactive | inactive | inactive |
| C[C@H]1CCCCO[C@H](CN(C)CC2CCCCC2)[C@@H](C)CN([C@@H](C)CO)C(=O)c2cc(NC(=O)Nc3ccccc3)ccc2O1 | inactive | inactive | inactive |
| C[C@H]1CN([C@@H](C)CO)C(=O)Cc2cc(NC(=O)CCCCCC(=O)Nc3ccccc3N)ccc2O[C@H]1CN(C)Cc1ccccc1 | inactive | inactive | inactive |
| C[C@H]1CN([C@@H](C)CO)C(=O)Cc2cc(NC(=O)c3ccncc3)ccc2O[C@H]1CN(C)Cc1ccc2c(c1)OCO2 | inactive | inactive | inactive |
| COc1ccc2c3c(n(c2c1)C)[C@@H](CO)N(C[C@]13CCN(CC1)C(=O)c1ccncc1)C(=O)C1CCC1 | inactive | inactive | inactive |
| C=CCN1C(=O)[C@]2(O[C@@H](CCOC(=O)NCCCCCC(=O)NO)[C@H]([Si](C)(C)c3ccc(OC)cc3)[C@H]2C)c2cc(I)ccc21 | inactive | inactive | inactive |
| C[C@@H]1CCCCO[C@H](CN(C)C(=O)NC2CCCCC2)[C@H](C)CN([C@@H](C)CO)C(=O)c2cc(NC(=O)CCC(F)(F)F)ccc2O1 | inactive | inactive | inactive |
| C[C@H]1CCCCO[C@H](CN(C)Cc2ccc(C(=O)O)cc2)[C@@H](C)CN([C@@H](C)CO)C(=O)c2cc(NC(=O)c3ccccc3)ccc2O1 | inactive | inactive | inactive |
| CO[C@H]1CN(C)C(=O)c2cc(NS(=O)(=O)CC(F)(F)F)ccc2OC[C@@H](C)N(Cc2nccs2)C[C@H]1C | inactive | inactive | inactive |
| COc1ccc2c3c([nH]c2c1)[C@H](CO)N(C[C@]13CCN(CC1)Cc1ccc(cc1)F)C(=O)Nc1ccc(cc1)F | inactive | active | inactive |
| CNC[C@H]1Oc2ccc(NS(=O)(=O)c3cn(C)cn3)cc2C(=O)N([C@@H](C)CO)C[C@@H]1C | inactive | inactive | inactive |
| C[C@H](CO)N1C[C@H](C)[C@@H](CN(C)C(=O)Cc2ccccc2)Oc2ncc(C#CC3(O)CCCC3)cc2C1=O | inactive | inactive | inactive |
| CC(C)NC(=O)Nc1ccc2c(c1)C(=O)N([C@@H](C)CO)C[C@H](C)[C@H](CN(C)Cc1ccccc1)OCCCC[C@H](C)O2 | inactive | inactive | inactive |
| CN(C)CCCNC(=O)C[C@@H]1CC[C@@H]2[C@H](COC[C@H](O)CN2C(=O)Nc2cc(Cl)cc(Cl)c2)O1 | inactive | inactive | inactive |
| CC(=O)Nc1ccc(S(=O)(=O)Nc2ccc([N+](=O)[O-])cc2)cc1 | inactive | inactive | inactive |
| C[C@H](CO)N1C[C@H](C)[C@H](CN(C)S(=O)(=O)c2ccccc2)Oc2ccc(NC(=O)Cc3ccccc3)cc2CC1=O | inactive | inactive | inactive |
| NCCCC(N)CC(=O)NC1CNC(=O)C(C2CC(O)NC(N)=N2)NC(=O)C(=CNC(N)=O)NC(=O)C(CO)NC(=O)C(CO)NC1=O.O=S(=O)(O)O (stereo not given) | inactive | inactive | inactive |
| Cc1noc(C)c1NC(=O)N(C)C[C@@H]1Oc2ccc(NC(=O)Cn3cnnn3)cc2C(=O)N([C@@H](C)CO)C[C@@H]1C | inactive | inactive | inactive |
